Test results: PubChem BioAssay (NCATS)
“And” between values parts separate entries of the source, which are not always exact repeats. Identical values can stand only once. The inconclusive results got no clear call from the source; some entries with a clear call stand among them for comparison. For part of these data: Potencies of inconclusive entries are doubtful fits and often do not repeat. The source made the active and inactive calls. Unless noted, calls come from the whole dose curve; as a rule, active = well fitted curve in the direction sought with a large enough effect; inconclusive = small, poorly fitted or top-dose-only effect, or another doubt; inactive = no such curve, though single readings can be large; an effect the other way counts as inactive or inconclusive.

Assays:
[1] = AP1 Signaling Pathway (AID 357; active = well fitted curve in either direction with a large enough effect, not every such curve was filed as active; inconclusive = small, poorly fitted or top-dose-only effect, or another doubt;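 note: ME-180 reporter cells stimulated with EGF at its EC50 level; top concentration of the series differs between compounds; % is set by controls: 0 for no effect and ±100 for the full control effect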); settings: ME-180 AP-1-bla reporter, EGF-induced, beta-lactamase ratio, 5 h; at 7.69 µM (top of the series) unless noted
How it was run: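 Cells are seeded overnight, exposed to compound titrations and an EC50 level of EGF for 5 hours at 37 °C, then loaded with CCF4 dye for 2.5 hours. Beta-lactamase activity under the AP-1 element is read as a blue/green ratio.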

[2] = target: 3',5'-cyclic-AMP phosphodiesterase 4B (Homo sapiens) (UniProt Q07343); assay: qHTS Assay for Inhibitors of PDE-IV (AID 607; active = well fitted activation curve with a large enough effect in the main read-out, with a control signal flat, not every such curve was filed as active; inconclusive = small, poorly fitted or top-dose-only effect, or effect the other way, or a change in a side signal; note: potency is the fitted concentration of half-maximal effect; for activation (PDE inhibition): % of control where 0% means no effect); settings: HEK293 ACTOne CNG channel cells, membrane potential fluorescence; activation (PDE inhibition): at 22.9 µM (top of the series)
UniProt Q07343, sequence (Q07343 whole entry, looked up): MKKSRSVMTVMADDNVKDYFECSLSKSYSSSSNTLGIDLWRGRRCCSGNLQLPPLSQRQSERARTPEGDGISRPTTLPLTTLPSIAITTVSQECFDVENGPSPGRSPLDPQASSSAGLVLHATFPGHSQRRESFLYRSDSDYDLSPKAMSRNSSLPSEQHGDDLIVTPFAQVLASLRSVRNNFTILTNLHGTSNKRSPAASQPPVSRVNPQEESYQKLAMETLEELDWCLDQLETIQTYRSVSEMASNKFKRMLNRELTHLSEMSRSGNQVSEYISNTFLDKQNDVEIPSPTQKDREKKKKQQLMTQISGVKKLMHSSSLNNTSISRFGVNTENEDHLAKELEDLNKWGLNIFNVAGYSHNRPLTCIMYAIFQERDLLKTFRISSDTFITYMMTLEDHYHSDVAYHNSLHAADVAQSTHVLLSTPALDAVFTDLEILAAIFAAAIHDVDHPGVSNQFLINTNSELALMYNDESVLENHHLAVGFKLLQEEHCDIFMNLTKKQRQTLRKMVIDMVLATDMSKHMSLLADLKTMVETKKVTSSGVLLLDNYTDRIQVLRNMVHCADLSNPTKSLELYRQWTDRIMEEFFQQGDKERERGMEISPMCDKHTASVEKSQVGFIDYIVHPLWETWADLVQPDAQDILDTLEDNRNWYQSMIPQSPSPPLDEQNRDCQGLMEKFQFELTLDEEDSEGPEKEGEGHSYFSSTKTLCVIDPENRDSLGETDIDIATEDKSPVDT
How it was run: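 Cell-based read-out of cAMP via a modified cyclic nucleotide-gated channel and membrane potential dye (535/590 nm) in HEK293 cells expressing PDE4 endogenously. Compounds tested up to 22.9 uM final; 100 uM RO 20-1724 reference.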

[3] = Confirmatory qHTS for small molecule stabilizers of the endoplasmic reticulum resident proteome: Secreted ER Calcium Modulated Protein (SERCaMP) assay (AID 1508628); note: nearly all actives have a fitted effect of over 40% in size; note: potency is the fitted concentration of half-maximal effect
How it was run: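 SH-SY5Y cells stably expressing GLuc-SERCaMP, treated 16 h with compound (primary 1.53, 7.67, 38.3 uM; confirmation 11 concentrations, up to 76.6 uM), then 100 nM thapsigargin for 4 h. Secreted Gaussia luciferase in medium read by coelenterazine luminescence.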

[4] = Cell Viability qHTS for small molecule stabilizers of the endoplasmic reticulum resident proteome (AID 1508629); settings: cell viability counter-screen, 100 nM thapsigargin for final 4 h;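 note: compound exposure about 46 h in total before the viability read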; note: potency is the fitted concentration of half-maximal effect;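 for max response: human SH-SY5Y neuroblastoma cells carrying the GLuc-SERCaMP reporter; % is set by controls: 0 for no effect and ±100 for the full control effect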
[5] = Primary qHTS for small molecule stabilizers of the endoplasmic reticulum resident proteome: Secreted ER Calcium Modulated Protein (SERCaMP) assay (AID 1508630); settings: SH-SY5Y GLuc-SERCaMP (Gaussia luciferase released on ER calcium loss) secretion, thapsigargin, luminescence; activity change, negative = inhibition: at 38.4 µM (top of the series) unless noted; note: potency is the fitted concentration of half-maximal effect
How it was run: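 GLuc-SERCaMP-expressing SH-SY5Y cells, pretreated 16 h with compound, are challenged with thapsigargin to empty ER calcium stores; after 4 h, coelenterazine is added directly to the medium and luminescence is imaged.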

[6] = NFAT Signaling Pathway (AID 444; active = well fitted curve in either direction with a large enough effect, not every such curve was filed as active; inconclusive = small, poorly fitted or top-dose-only effect, or another doubt;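 note: carbachol stimulus at about its EC50 of 1 µM final; % is set by controls: 0 for no effect and ±100 for the full control effect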); settings: Jurkat NFAT-bla M1, carbachol, beta-lactamase ratio, 5 h; at 7.69 µM (top of the series) unless noted
How it was run: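 Jurkat cells with NFAT-driven β-lactamase reporter and co-expressed M1 receptor, stimulated with carbachol (final 1 uM, ~EC50), compound titration, 5 h at 37 °C. CCF4 loaded 1 h at RT; 460/530 nm ratio gave %activity and AC50.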

[7] = qHTS Assay for Identification of Small Molecule Agonists for Hypoxia Response Element Signaling Pathway (AID 914; active = well fitted activation curve with a large enough effect in the signal ratio, with a control signal flat, not every such curve was filed as active; inconclusive = small, poorly fitted or top-dose-only effect, or effect the other way, or a change in a side signal; the % refers to the signal ratio; note: potency is the fitted concentration of half-maximal effect; for activation: top concentration of the series differs between compounds; % of control where 0% means no effect); settings: ME-180 (cervical carcinoma) HRE-bla reporter, beta-lactamase ratio, CoCl2, 17 h; activation: hits give high values
How it was run: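 Reporter activity (beta-lactamase, CCF4 460nm/530nm ratio) in HRE-bla ME-180 cells is recorded after 17 h compound exposure with EC50 CoCl2 at 37 degrees Celsius. AC50 values come from titration data.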

[8] = target: Cytochrome P450 1A2 (Homo sapiens) (UniProt P05177); assay: p450-cyp1a2 (AID 410; calls by dose curve; note: potency is the fitted concentration of half-maximal effect)
UniProt P05177, sequence (P05177 whole entry, looked up): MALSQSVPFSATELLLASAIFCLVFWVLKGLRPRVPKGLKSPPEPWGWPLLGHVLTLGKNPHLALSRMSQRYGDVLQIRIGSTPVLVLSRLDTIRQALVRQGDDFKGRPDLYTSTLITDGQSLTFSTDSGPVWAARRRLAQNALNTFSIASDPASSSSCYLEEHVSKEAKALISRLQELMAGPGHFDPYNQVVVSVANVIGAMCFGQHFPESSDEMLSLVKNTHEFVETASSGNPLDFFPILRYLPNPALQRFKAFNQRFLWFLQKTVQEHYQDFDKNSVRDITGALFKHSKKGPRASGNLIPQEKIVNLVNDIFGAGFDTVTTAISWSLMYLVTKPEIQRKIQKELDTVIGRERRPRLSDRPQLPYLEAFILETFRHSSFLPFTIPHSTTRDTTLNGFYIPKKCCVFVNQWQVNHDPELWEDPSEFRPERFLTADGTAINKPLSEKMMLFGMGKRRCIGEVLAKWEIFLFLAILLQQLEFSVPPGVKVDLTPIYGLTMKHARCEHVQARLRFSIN
How it was run: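 20nM CYP1A2 with 100uM Luciferin-ME (at Km) in 100mM KPO4; compound preincubated 10 min, NADPH regeneration added, 60 min at room temperature. Luciferin quantified by luminescence after detection reagent; normalized to 57 uM furafylline.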

[9] = target: Cytochrome P450 3A4 (Homo sapiens) (UniProt P08684); assay: qHTS Assay for Activators of Cytochrome P450 3A4 (AID 885); note: potency is the fitted concentration of half-maximal effect; nearly all actives have a fitted effect of over 65% in size
UniProt P08684, sequence (P08684 whole entry, looked up): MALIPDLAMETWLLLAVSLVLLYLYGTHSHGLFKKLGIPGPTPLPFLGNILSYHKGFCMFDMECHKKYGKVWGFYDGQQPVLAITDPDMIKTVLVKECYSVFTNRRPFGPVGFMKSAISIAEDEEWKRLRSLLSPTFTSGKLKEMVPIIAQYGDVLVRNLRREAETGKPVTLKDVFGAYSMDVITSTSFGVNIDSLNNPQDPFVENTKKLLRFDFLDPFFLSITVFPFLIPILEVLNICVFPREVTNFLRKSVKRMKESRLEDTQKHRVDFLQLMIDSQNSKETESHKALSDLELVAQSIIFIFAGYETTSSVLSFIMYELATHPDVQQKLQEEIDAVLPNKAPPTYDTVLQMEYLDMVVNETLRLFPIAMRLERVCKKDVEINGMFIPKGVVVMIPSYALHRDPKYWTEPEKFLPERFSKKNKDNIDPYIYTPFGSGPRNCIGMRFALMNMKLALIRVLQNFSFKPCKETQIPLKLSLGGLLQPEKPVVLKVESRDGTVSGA
How it was run: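 Signal was normalized against complete inhibition by 57 uM ketoconazole. The reaction used 20nM CYP3A4 with 25uM Luciferin-PPXE, 10-min compound preincubation and a 60-min NADPH-supported step at RT.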

[10] = target: Mitogen-activated protein kinase 10 (Mus musculus) (UniProt Q61831); assay: JNK3 AlphaScreen Assay (AID 530; active = well fitted curve in either direction with a large enough effect, not every such curve was filed as active; inconclusive = small, poorly fitted or top-dose-only effect, or another doubt;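 note: kinase came from lysate of stimulated human HepG2 cells; signal reports phosphorylation of biotinylated GST-cJun 1-79 at Ser73 with 10 µM ATP; potency is the fitted concentration of half-maximal effect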); settings: JNK3 lysate, c-Jun phosphorylation; activity change, negative = inhibition: at 57.1 µM (top of the series)
How it was run: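 Pre-activated (IL-1β/TNFα) JNK3 in HepG2 lysates phosphorylates biotin-GST-cJun(1-79), 10 uM ATP; anti-phospho-cJun(Ser73) AlphaScreen read at room temperature, pH 7.6 Tris buffer. Compounds pre-incubated 15 min as titrations.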

[11] = target: Dual specificity protein kinase CLK4 (Homo sapiens) (UniProt Q9HAZ1); assay: qHTS Assay for Inhibitors of CDC-like Kinase 4 (ADP-FP Assay) (AID 1795);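 note: recombinant human CLK4 phosphorylating RS repeat peptide at 1 µM ATP; % is set by controls: 0 for no effect and ±100 for the full control effect; nearly all actives have a fitted effect of over 60% in size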
UniProt Q9HAZ1, sequence (Q9HAZ1 whole entry, looked up): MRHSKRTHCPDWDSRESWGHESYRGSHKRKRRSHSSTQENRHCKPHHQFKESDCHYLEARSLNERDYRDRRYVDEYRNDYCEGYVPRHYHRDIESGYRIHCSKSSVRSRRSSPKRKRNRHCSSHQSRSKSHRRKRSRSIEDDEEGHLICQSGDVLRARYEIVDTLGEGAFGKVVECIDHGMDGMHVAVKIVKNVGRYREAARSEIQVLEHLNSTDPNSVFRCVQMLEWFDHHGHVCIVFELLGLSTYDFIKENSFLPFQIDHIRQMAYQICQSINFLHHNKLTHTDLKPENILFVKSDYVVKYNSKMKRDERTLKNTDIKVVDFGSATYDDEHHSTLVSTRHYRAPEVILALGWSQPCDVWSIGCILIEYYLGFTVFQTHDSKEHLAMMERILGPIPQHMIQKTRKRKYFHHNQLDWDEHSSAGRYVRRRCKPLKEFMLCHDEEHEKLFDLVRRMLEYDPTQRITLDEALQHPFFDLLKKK
How it was run: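 Kinase activity was followed as ADP output, converted from fluorescence polarization with a calibration curve. Reactions ran one hour at low ATP (1 uM) with RS peptide substrate.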

[12] = target: Cytochrome P450 3A4 (Homo sapiens) (UniProt P08684); assay: qHTS Assay for Inhibitors and Substrates of Cytochrome P450 3A4 (AID 884); settings: recombinant CYP3A4, Luciferin-PPXE luminescence; activity change, negative = inhibition: at 57.1 µM (top of the series); note: potency is the fitted concentration of half-maximal effect; nearly all actives have a fitted effect of over 50% in size
How it was run: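 20 nM human CYP3A4 with 25 uM Luciferin-PPXE (at KM) in 200 mM KPO4, preincubated 10 min with compound; NADPH regeneration started a 60 min RT reaction. Luciferin detected by luminescence, normalized to 57 uM ketoconazole as full inhibition.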
Tags give direction and shape of the fitted curve or compound fluorescence and quenching.

COCCn1c(=O)c(CCc2ccccc2)nc2cnc(OC)nc21
activity change, negative = inhibition [1]: inactive: -6.75%
Potency [2]: inconclusive: 3.98 µM [activator, partial curve]
Potency [3]: inconclusive: 39.8 µM [inhibitor, partial curve, poor fit]
Potency [4]: inconclusive: 251 nM [rising, full curve]
Potency [5]: inconclusive: 11.2 µM [inhibitor, partial curve, poor fit]

O=C(c1cc(C(F)(F)F)cc(C(F)(F)F)c1)N1CCC2(CC1)CN(c1ccccn1)C2
activity change, negative = inhibition [6]: inconclusive: -56.9% [inhibitor]
Potency [7]: inconclusive: 3.16 µM [inhibitor, single point]
Potency [3]: inactive
max response [4]: inactive: -18%
Potency [5]: inconclusive: 31.6 µM [inhibitor, partial curve, poor fit]

COc1ccc2c3c1O[C@H]1C[C@H](O)C=C[C@@]31CCN(C)C2
Potency [2]: inconclusive: 15.1 µM [inhibitor, single point] and inconclusive: 19 µM [inhibitor, single point]
Potency [3]: inconclusive: 22.4 µM [inhibitor, partial curve, poor fit]
Potency [4]: inconclusive: 158 nM [rising, full curve, poor fit]
Potency [5]: inconclusive: 3.55 µM [inhibitor, full curve, poor fit]

CN(C)Cc1ccccc1-c1ccc2ncnc(NCc3cccs3)c2c1
Potency [2]: inconclusive: 5.01 µM [activator, partial curve]
Potency [3]: inconclusive: 31.6 µM [inhibitor, partial curve]
Potency [4]: inconclusive: 63.1 nM [rising, full curve]
Potency [5]: inconclusive: 10 µM [inhibitor, partial curve, poor fit]

O=C(c1cc(C(F)(F)F)cc(C(F)(F)F)c1)N1CCC2(CC1)CCN(c1ccncc1)CC2
Potency [8]: inconclusive: 25.1 µM [decreasing]
activity change, negative = inhibition [6]: inconclusive: -43% [inhibitor]
Potency [2]: inconclusive: 1.26 µM [rising, full curve]
Potency [9]: inconclusive: 10 µM [activator, partial curve]
Potency [7]: inconclusive: 5.01 µM [activator, single point]
Potency [3]: inactive
Potency [4]: inconclusive: 178 nM [rising, full curve, poor fit]
Potency [5]: inconclusive: 35.5 µM [inhibitor, partial curve, poor fit]

Cn1cc(-c2nc3cncnc3n(-c3ccccc3)c2=O)c2ccccc21
Potency [10]: inconclusive: 2 µM [activator, full curve]
Potency [2]: inconclusive: 12.6 µM [activator, single point]
Potency [3]: inconclusive: 12.6 µM [inhibitor, full curve, poor fit]
Potency [4]: inconclusive: 631 nM [rising, full curve, poor fit]
Potency [5]: inconclusive: 31.6 µM [inhibitor, partial curve, poor fit]

COCCn1c(=O)c(-c2ccc(Cl)cc2)nc2cnc(OCc3ccccc3)nc21
Potency [2]: inconclusive: 1 µM [activator, full curve]
Potency [11]: inactive
Potency [3]: inconclusive: 12.6 µM [inhibitor, full curve]
Potency [4]: inconclusive: 282 nM [rising, full curve, poor fit]
Potency [5]: inconclusive: 12.6 µM [inhibitor, partial curve, poor fit]

CN1CCN(c2nc(-c3ccccc3C(F)(F)F)nc3ccccc23)CC1
Potency [2]: inactive
activation [7]: inactive: -4.44%
Potency [3]: active: 14.1 µM
max response [4]: inactive: 16.6%
Potency [5]: inconclusive: 7.08 µM [inhibitor, partial curve, poor fit]

CN(C)c1ccc(-c2nccc(NCCN3CCOCC3)n2)cc1
Potency [10]: inconclusive: 15.8 µM [inhibitor, partial curve]
activation [7]: inactive: -5.52%
Potency [3]: inconclusive: 17.8 µM [inhibitor, full curve]
max response [4]: inactive: 10.1%
Potency [5]: inconclusive: 8.91 µM [inhibitor, partial curve, poor fit]

COc1ccc(Oc2ncc3nc(-c4cc(F)cc(F)c4)c(=O)n(CCC#N)c3n2)cc1
Potency [10]: inconclusive: 10 µM [inhibitor, partial curve]
Potency [12]: inconclusive: 1.26 µM [inhibitor, full curve]
Potency [3]: active: 31.6 µM
max response [4]: inactive: -0.74%
Potency [5]: inconclusive: 31.6 µM [inhibitor, partial curve, poor fit]
